Reference: the supplement of paper PMC8728848
This is one part of the list.

How the values were obtained:
Experiment in all cases: glycan array binding signal (z-score within array); higher = stronger binding
Conditions in all cases: glycan notation: IUPAC condensed, linker removed
[1] = target: Fuc(a1-2)Gal6S(b1-3)GlcNAc6S
In short: (§1)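 Glycan array data were curated from 3228 arrays in the Consortium for Functional Glycomics database and kept only where the protein sequence was available. Glycan names were converted to IUPAC-condensed notation, and columns mapping to the same glycan were averaged. The binding signal is a within-array Z-score, averaged across arrays of the same protein sequence at different concentrations or buffers and across linkers. Negative Z-scores can be read as non-binding.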

Fuc(a1-2)Gal6S(b1-4)Glc = target: Fuc(a1-2)Gal6S(b1-4)Glc
In short: as §1

[2] = target: Fuc(a1-2)Gal6S(b1-4)Glc6S
In short: as §1

Fuc(a1-2)[Gal(a1-3)]Gal = target: Fuc(a1-2)[Gal(a1-3)]Gal
In short: as §1

[3] = target: Fuc(a1-2)[Gal(a1-3)]Gal(b1-3)GalNAc
In short: as §1

[4] = target: Fuc(a1-2)[Gal(a1-3)]Gal(b1-3)GalNAc(b1-3)Gal(a1-4)Gal(b1-4)Glc
In short: as §1

[5] = target: Fuc(a1-2)[Gal(a1-3)]Gal(b1-3)GlcNAc
In short: as §1

[6] = target: Fuc(a1-2)[Gal(a1-3)]Gal(b1-3)GlcNAc(b1-2)Man(a1-3)[Fuc(a1-2)[Gal(a1-3)]Gal(b1-3)GlcNAc(b1-2)Man(a1-6)]Man(b1-4)GlcNAc(b1-4)GlcNAc
In short: as §1

[7] = target: Fuc(a1-2)[Gal(a1-3)]Gal(b1-3)GlcNAc(b1-2)Man(a1-3)[Fuc(a1-2)[Gal(a1-3)]Gal(b1-3)GlcNAc(b1-2)Man(a1-6)]Man(b1-4)GlcNAc(b1-4)[Fuc(a1-6)]GlcNAc
In short: as §1

[8] = target: Fuc(a1-2)[Gal(a1-3)]Gal(b1-3)GlcNAc(b1-3)GalNAc
In short: as §1

[9] = target: Fuc(a1-2)[Gal(a1-3)]Gal(b1-3)GlcNAc(b1-6)GalNAc
In short: as §1

[10] = target: Fuc(a1-2)[Gal(a1-3)]Gal(b1-4)Glc
In short: as §1

[11] = target: Fuc(a1-2)[Gal(a1-3)]Gal(b1-4)GlcNAc
In short: as §1

[12] = target: Fuc(a1-2)[Gal(a1-3)]Gal(b1-4)GlcNAc(b1-2)Man
In short: as §1

[13] = target: Fuc(a1-2)[Gal(a1-3)]Gal(b1-4)GlcNAc(b1-2)Man(a1-3)[Fuc(a1-2)[Gal(a1-3)]Gal(b1-4)GlcNAc(b1-2)Man(a1-6)]Man(b1-4)GlcNAc(b1-4)GlcNAc
In short: as §1

[14] = target: Fuc(a1-2)[Gal(a1-3)]Gal(b1-4)GlcNAc(b1-2)Man(a1-3)[Fuc(a1-2)[Gal(a1-3)]Gal(b1-4)GlcNAc(b1-2)Man(a1-6)]Man(b1-4)GlcNAc(b1-4)[Fuc(a1-6)]GlcNAc
In short: as §1

[15] = target: Fuc(a1-2)[Gal(a1-3)]Gal(b1-4)GlcNAc(b1-3)GalNAc
In short: as §1

[16] = target: Fuc(a1-2)[Gal(a1-3)]Gal(b1-4)GlcNAc(b1-3)[Fuc(a1-2)[Gal(a1-3)]Gal(b1-4)GlcNAc(b1-6)]GalNAc
In short: as §1

[17] = target: Fuc(a1-2)[Gal(a1-3)]Gal(b1-4)GlcNAc(b1-6)GalNAc
In short: as §1

[18] = target: Fuc(a1-2)[Gal(a1-3)]Gal(b1-4)[Fuc(a1-3)]Glc
In short: as §1

[19] = target: Fuc(a1-2)[Gal(a1-3)]Gal(b1-4)[Fuc(a1-3)]GlcNAc
In short: as §1

[20] = target: Fuc(a1-2)[Gal(a1-3)]Gal(b1-4)[Fuc(a1-3)]GlcNAc(b1-3)GalNAc
In short: as §1

[21] = target: Fuc(a1-2)[Gal(a1-4)]Gal(b1-4)GlcNAc
In short: as §1

[22] = target: Fuc(a1-2)[GalNAc(a1-3)]Gal
In short: as §1

[23] = target: Fuc(a1-2)[GalNAc(a1-3)]Gal(b1-3)GalNAc(a1-3)[Fuc(a1-2)]Gal(b1-4)GlcNAc
In short: as §1

[24] = target: Fuc(a1-2)[GalNAc(a1-3)]Gal(b1-3)GalNAc(b1-3)Gal(a1-4)Gal(b1-4)Glc
In short: as §1

[25] = target: Fuc(a1-2)[GalNAc(a1-3)]Gal(b1-3)GlcNAc
In short: as §1

[26] = target: Fuc(a1-2)[GalNAc(a1-3)]Gal(b1-3)GlcNAc(b1-2)Man(a1-3)[Fuc(a1-2)[GalNAc(a1-3)]Gal(b1-3)GlcNAc(b1-2)Man(a1-6)]Man(b1-4)GlcNAc(b1-4)GlcNAc
In short: as §1

[27] = target: Fuc(a1-2)[GalNAc(a1-3)]Gal(b1-3)GlcNAc(b1-2)Man(a1-3)[Fuc(a1-2)[GalNAc(a1-3)]Gal(b1-3)GlcNAc(b1-2)Man(a1-6)]Man(b1-4)GlcNAc(b1-4)[Fuc(a1-6)]GlcNAc
In short: as §1

[28] = target: Fuc(a1-2)[GalNAc(a1-3)]Gal(b1-3)GlcNAc(b1-3)GalNAc
In short: as §1

[29] = target: Fuc(a1-2)[GalNAc(a1-3)]Gal(b1-3)GlcNAc(b1-6)GalNAc
In short: as §1

[30] = target: Fuc(a1-2)[GalNAc(a1-3)]Gal(b1-4)Glc
In short: as §1

[31] = target: Fuc(a1-2)[GalNAc(a1-3)]Gal(b1-4)GlcNAc
In short: as §1

[32] = target: Fuc(a1-2)[GalNAc(a1-3)]Gal(b1-4)GlcNAc(b1-2)Man
In short: as §1

[33] = target: Fuc(a1-2)[GalNAc(a1-3)]Gal(b1-4)GlcNAc(b1-2)Man(a1-3)[Fuc(a1-2)[GalNAc(a1-3)]Gal(b1-4)GlcNAc(b1-2)Man(a1-6)]Man(b1-4)GlcNAc(b1-4)GlcNAc
In short: as §1

[34] = target: Fuc(a1-2)[GalNAc(a1-3)]Gal(b1-4)GlcNAc(b1-2)Man(a1-3)[Fuc(a1-2)[GalNAc(a1-3)]Gal(b1-4)GlcNAc(b1-2)Man(a1-6)]Man(b1-4)GlcNAc(b1-4)[Fuc(a1-6)]GlcNAc
In short: as §1

[35] = target: Fuc(a1-2)[GalNAc(a1-3)]Gal(b1-4)GlcNAc(b1-3)Gal(b1-4)GlcNAc
In short: as §1

[36] = target: Fuc(a1-2)[GalNAc(a1-3)]Gal(b1-4)GlcNAc(b1-3)Gal(b1-4)GlcNAc(b1-3)Gal(b1-4)GlcNAc
In short: as §1

[37] = target: Fuc(a1-2)[GalNAc(a1-3)]Gal(b1-4)GlcNAc(b1-3)GalNAc
In short: as §1

[38] = target: Fuc(a1-2)[GalNAc(a1-3)]Gal(b1-4)GlcNAc(b1-3)[Fuc(a1-2)[GalNAc(a1-3)]Gal(b1-4)GlcNAc(b1-6)]GalNAc
In short: as §1

[39] = target: Fuc(a1-2)[GalNAc(a1-3)]Gal(b1-4)GlcNAc(b1-6)GalNAc
In short: as §1

[40] = target: Fuc(a1-2)[GalNAc(a1-3)]Gal(b1-4)[Fuc(a1-3)]GlcNAc
In short: as §1

[41] = target: Fuc(a1-2)[GalNAc(a1-3)]Gal(b1-4)[Fuc(a1-3)]GlcNAc(b1-3)GalNAc
In short: as §1

[42] = target: Fuc(a1-2)[GalNAc(a1-4)]Gal(b1-4)GlcNAc
In short: as §1

[43] = target: Fuc(a1-2)[GalNAc(b1-3)]Gal
In short: as §1

B1: GS7807P-bth-537-23-537 (Bacteroides thetaiotaomicron) (protein)
chain: NYENINSNPYEAPDLSADGYALGSAMNNLAGCVVSPDVNTAQFTDCLLGGPLGGYFADSNAGFTETISNFNPKDDWSRVFLKSDKIIPTLYSNLTQVKLVSQNTNDPVPYAIAQVIKVAAMHRVTDAFGPIPYSQIGANGEIATPYDSQEVTYNTFFDELNAAIATLNENSNEQLVPTADYIYKGDVKKWIRFANSLKLRLAIRIAYANPVKAQQMAEEAVNPANGGVIESNADNATWNYFETSQNPIYVATRYNQVQTSDHGGVPCLTGGDTHAAADIICYMNGYKDNRREKFFTKSEWAGQDYVGMRRGIVIPELKTTGHKYSGVNIAPTSPLYWMNAAEVAFLRAEGQAVFNFSMGGTAESFYNQGIRLSFEQWGADGVEDYLKDDVNKPTAYTDPAGTNTYQNALSNITIKWNDSADKEEKQERIIVQKWIANWQLGNEAWADFRRTGYPKLIPVKENKSGGVVDSEKGARRMPYPLDEFVSNKANVEYAIANYLHGADNMATDVWWASKK
- glycan array binding signal (z-score) [1]: -0.329
- glycan array binding signal (z-score) (Fuc(a1-2)Gal6S(b1-4)Glc): 0.294
- glycan array binding signal (z-score) [2]: -0.176
- glycan array binding signal (z-score) (Fuc(a1-2)[Gal(a1-3)]Gal): -0.241
- glycan array binding signal (z-score) [3]: -0.331
- glycan array binding signal (z-score) [4]: -0.394
- glycan array binding signal (z-score) [5]: -0.36
- glycan array binding signal (z-score) [6]: -0.375
- glycan array binding signal (z-score) [7]: -0.286
- glycan array binding signal (z-score) [8]: -0.325
- glycan array binding signal (z-score) [9]: 2.94
- glycan array binding signal (z-score) [10]: -0.389
- glycan array binding signal (z-score) [11]: -0.359
- glycan array binding signal (z-score) [12]: -0.195
- glycan array binding signal (z-score) [13]: 0.136
- glycan array binding signal (z-score) [14]: -0.368
- glycan array binding signal (z-score) [15]: 0.161
- glycan array binding signal (z-score) [16]: 0.192
- glycan array binding signal (z-score) [17]: -0.316
- glycan array binding signal (z-score) [18]: -0.398
- glycan array binding signal (z-score) [19]: -0.366
- glycan array binding signal (z-score) [20]: 0.004
- glycan array binding signal (z-score) [21]: -0.331
- glycan array binding signal (z-score) [22]: -0.237
- glycan array binding signal (z-score) [23]: -0.231
- glycan array binding signal (z-score) [24]: -0.368
- glycan array binding signal (z-score) [25]: -0.353
- glycan array binding signal (z-score) [26]: 0.034
- glycan array binding signal (z-score) [27]: -0.001
- glycan array binding signal (z-score) [28]: -0.32
- glycan array binding signal (z-score) [29]: -0.275
- glycan array binding signal (z-score) [30]: -0.209
- glycan array binding signal (z-score) [31]: -0.302
- glycan array binding signal (z-score) [32]: -0.271
- glycan array binding signal (z-score) [33]: 3.7
- glycan array binding signal (z-score) [34]: -0.355
- glycan array binding signal (z-score) [35]: -0.356
- glycan array binding signal (z-score) [36]: 0.178
- glycan array binding signal (z-score) [37]: -0.248
- glycan array binding signal (z-score) [38]: -0.268
- glycan array binding signal (z-score) [39]: -0.385
- glycan array binding signal (z-score) [40]: 1.16
- glycan array binding signal (z-score) [41]: 0.726
- glycan array binding signal (z-score) [42]: 0.234
- glycan array binding signal (z-score) [43]: 0.46
